Experimental data published in the DeepSol protein solubility set.

assay: soluble on expression in E. coli; label from the status in PepcDB or PDB records

Row | Sequence | soluble on expression in E. coli
1 | ARKCSLTGKWTNDLGSNMTIGAVNSRGEFTGTYITAVTATSNEIKESPLHGTQNTINKRTQPTFGFTVNWKFSESTTVFTGQCFIDRNGKEVLKTMWLLRSSVNDIGDDWKATRVGINIFTRLRTQKE | soluble
2 | MINLKCTFAVTAGLCSSLAYAQKQPHIILIMTDQQRGDAMGCMGNESLISPHLDALASEGTLFMNGYSSCPSSTPARAGLLTGQSPWHHGLLGYGKVAPKYNHEMPQMLKDAGYYTFGIGKMHWHPQRIKHGFEGTLLDESGRREDPNFISDYRLWFQIQAPGKNPDETGIGWNDHGAATYKLKESLHPTYWTGEMACQMIQNYDNGNQPLFLKVSFARPHSPYDPPQRFLDMYKDAQVPDPVIGEWCGKYAKELDPEKAAKDAPYGNFGNEYARHSKRYYYANITFIDEQIGRVLQTLKDKGMYDNSLIIFVSDHGDMMGDHYHWRKTYPYEGSTHIPYIIKWPAKAQVVPGKVDNPVELRDLLPTFFEIAGTSVPTDIDGRSLLSLAKGTETEWRKYIDLEHATCYSDDNYWCALTDGKIKYIWYFYTGEEQLFDLAKDPKELHNAVNDKKYKKLLTGMRAEMIRHLSERGEEFVKDGQLVVRKKTMLYGPNYPKEKRLEHHHHHH | soluble
3 | MKVAENQKVYDITIIGGGPTGLFTAFYGGMRQASVKIIESLPQLGGQLSALYPEKYIYDVAGFPKVRAQELVDNLKEQMKKFDPTVCLEEAVDTLEKQADGIFKLVTNKQTHYSKSVIITAGNGAFQPRRLELEGTAKYEKKNLHYFVDDMNKFAGKRVVVFGGGDSAVDWTMMLEPIAEKVTIVHRRDKFRAHEHSVENLMNSRAEVSTPYVPVELIGDDKIEQVVLQHVKTEEKVIIDVDDVIVNYGFVSSLGPIKNWGLDIQKNSILVNSKMETNIPGIYAAGDICTYEGKVKLIACGFGEAPTAVNNAKAYFDPNAKLQPMHSSSMF | not soluble
